Measured values from the supplement of paper PMC8728848.
This is one part of the list.

Assays:
Experiment in all cases: glycan array binding signal (z-score within array); higher = stronger binding
Conditions in all cases: glycan notation: IUPAC condensed, linker removed
[1] = biological target: Gal(b1-4)Glc
Summary of the method: (§1)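 The Consortium for Functional Glycomics database supplied 3228 glycan arrays, of which those lacking an available protein sequence were dropped. The binding signal, a within-array Z-score, was averaged across arrays of the same protein sequence and across linkers. Negative scores can be read as non-binding.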

[2] = biological target: Gal(b1-4)Glc6S
Summary of the method: as §1

[3] = biological target: Gal(b1-4)GlcNAc
Summary of the method: as §1

[4] = biological target: Gal(b1-4)GlcNAc(a1-6)Gal(b1-4)GlcNAc
Summary of the method: as §1

[5] = biological target: Gal(b1-4)GlcNAc(b1-2)Man
Summary of the method: as §1

[6] = biological target: Gal(b1-4)GlcNAc(b1-2)Man(a1-3)Man(b1-4)GlcNAc(b1-4)GlcNAc
Summary of the method: as §1

[7] = biological target: Gal(b1-4)GlcNAc(b1-2)Man(a1-3)[Gal(b1-4)GlcNAc(b1-2)Man(a1-6)]Man(b1-4)GlcNAc(b1-4)GlcNAc
Summary of the method: as §1

[8] = biological target: Gal(b1-4)GlcNAc(b1-2)Man(a1-3)[Gal(b1-4)GlcNAc(b1-2)Man(a1-6)]Man(b1-4)GlcNAc(b1-4)[Fuc(a1-6)]GlcNAc
Summary of the method: as §1

[9] = biological target: Gal(b1-4)GlcNAc(b1-2)Man(a1-3)[Gal(b1-4)GlcNAc(b1-2)Man(a1-6)][Gal(b1-4)GlcNAc(b1-4)]Man(b1-4)GlcNAc(b1-4)[Fuc(a1-6)]GlcNAc
Summary of the method: as §1

[10] = biological target: Gal(b1-4)GlcNAc(b1-2)Man(a1-3)[Gal(b1-4)GlcNAc(b1-2)Man(a1-6)][GlcNAc(b1-4)]Man(b1-4)GlcNAc(b1-4)[Fuc(a1-6)]GlcNAc
Summary of the method: as §1

[11] = biological target: Gal(b1-4)GlcNAc(b1-2)Man(a1-3)[GlcNAc(b1-2)Man(a1-6)]Man(b1-4)GlcNAc(b1-4)GlcNAc
Summary of the method: as §1

[12] = biological target: Gal(b1-4)GlcNAc(b1-2)Man(a1-3)[GlcNAc(b1-4)][Gal(b1-4)GlcNAc(b1-2)Man(a1-6)]Man(b1-4)GlcNAc(b1-4)GlcNAc
Summary of the method: as §1

[13] = biological target: Gal(b1-4)GlcNAc(b1-2)Man(a1-3)[Man(a1-6)]Man(b1-4)GlcNAc(b1-4)GlcNAc
Summary of the method: as §1

[14] = biological target: Gal(b1-4)GlcNAc(b1-2)Man(a1-6)Man(b1-4)GlcNAc(b1-4)GlcNAc
Summary of the method: as §1

[15] = biological target: Gal(b1-4)GlcNAc(b1-2)Man(a1-6)[GlcNAc(b1-2)Man(a1-3)]Man(b1-4)GlcNAc(b1-4)GlcNAc
Summary of the method: as §1

[16] = biological target: Gal(b1-4)GlcNAc(b1-2)Man(a1-6)[Man(a1-3)]Man(b1-4)GlcNAc(b1-4)GlcNAc
Summary of the method: as §1

[17] = biological target: Gal(b1-4)GlcNAc(b1-2)[Gal(b1-4)GlcNAc(b1-4)]Man(a1-3)[Gal(b1-4)GlcNAc(b1-2)Man(a1-6)]Man(b1-4)GlcNAc(b1-4)GlcNAc
Summary of the method: as §1

[18] = biological target: Gal(b1-4)GlcNAc(b1-2)[Gal(b1-4)GlcNAc(b1-4)]Man(a1-3)[Gal(b1-4)GlcNAc(b1-2)[Gal(b1-4)GlcNAc(b1-6)]Man(a1-6)]Man(b1-4)GlcNAc(b1-4)GlcNAc
Summary of the method: as §1

[19] = biological target: Gal(b1-4)GlcNAc(b1-2)[Gal(b1-4)GlcNAc(b1-4)]Man(a1-3)[GlcNAc(b1-4)][Gal(b1-4)GlcNAc(b1-2)Man(a1-6)]Man(b1-4)GlcNAc(b1-4)GlcNAc
Summary of the method: as §1

[20] = biological target: Gal(b1-4)GlcNAc(b1-2)[Gal(b1-4)GlcNAc(b1-4)]Man(a1-3)[GlcNAc(b1-4)][Gal(b1-4)GlcNAc(b1-2)[Gal(b1-4)GlcNAc(b1-6)]Man(a1-6)]Man(b1-4)GlcNAc(b1-4)GlcNAc
Summary of the method: as §1

[21] = biological target: Gal(b1-4)GlcNAc(b1-2)[Gal(b1-4)GlcNAc(b1-6)]Man(a1-6)[Gal(b1-4)GlcNAc(b1-2)Man(a1-3)]Man(b1-4)GlcNAc(b1-4)GlcNAc
Summary of the method: as §1

[22] = biological target: Gal(b1-4)GlcNAc(b1-2)[Gal(b1-4)GlcNAc(b1-6)]Man(a1-6)[Gal(b1-4)GlcNAc(b1-2)Man(a1-3)]Man(b1-4)GlcNAc(b1-4)[Fuc(a1-6)]GlcNAc
Summary of the method: as §1

[23] = biological target: Gal(b1-4)GlcNAc(b1-2)[Gal(b1-4)GlcNAc(b1-6)]Man(a1-6)[GlcNAc(b1-4)][Gal(b1-4)GlcNAc(b1-2)Man(a1-3)]Man(b1-4)GlcNAc(b1-4)GlcNAc
Summary of the method: as §1

[24] = biological target: Gal(b1-4)GlcNAc(b1-2)[Gal(b1-4)GlcNAc(b1-6)]Man(a1-6)[GlcNAc(b1-4)][Gal(b1-4)GlcNAc(b1-2)[Gal(b1-4)GlcNAc(b1-4)]Man(a1-3)]Man(b1-4)GlcNAc(b1-4)[Fuc(a1-6)]GlcNAc
Summary of the method: as §1

[25] = biological target: Gal(b1-4)GlcNAc(b1-3)Gal(b1-3)GalNAc
Summary of the method: as §1

[26] = biological target: Gal(b1-4)GlcNAc(b1-3)Gal(b1-3)GlcNAc
Summary of the method: as §1

[27] = biological target: Gal(b1-4)GlcNAc(b1-3)Gal(b1-4)Glc
Summary of the method: as §1

[28] = biological target: Gal(b1-4)GlcNAc(b1-3)Gal(b1-4)GlcNAc
Summary of the method: as §1

[29] = biological target: Gal(b1-4)GlcNAc(b1-3)Gal(b1-4)GlcNAc(b1-2)Man(a1-3)[Gal(b1-4)GlcNAc(b1-3)Gal(b1-4)GlcNAc(b1-2)Man(a1-6)]Man(b1-4)GlcNAc(b1-4)GlcNAc
Summary of the method: as §1

[30] = biological target: Gal(b1-4)GlcNAc(b1-3)Gal(b1-4)GlcNAc(b1-2)Man(a1-3)[Gal(b1-4)GlcNAc(b1-3)Gal(b1-4)GlcNAc(b1-2)Man(a1-6)]Man(b1-4)GlcNAc(b1-4)[Fuc(a1-6)]GlcNAc
Summary of the method: as §1

[31] = biological target: Gal(b1-4)GlcNAc(b1-3)Gal(b1-4)GlcNAc(b1-2)[Gal(b1-4)GlcNAc(b1-3)Gal(b1-4)GlcNAc(b1-6)]Man(a1-6)[Gal(b1-4)GlcNAc(b1-3)Gal(b1-4)GlcNAc(b1-2)Man(a1-3)]Man(b1-4)GlcNAc(b1-4)GlcNAc
Summary of the method: as §1

[32] = biological target: Gal(b1-4)GlcNAc(b1-3)Gal(b1-4)GlcNAc(b1-2)[Gal(b1-4)GlcNAc(b1-3)Gal(b1-4)GlcNAc(b1-6)]Man(a1-6)[Gal(b1-4)GlcNAc(b1-3)Gal(b1-4)GlcNAc(b1-2)Man(a1-3)]Man(b1-4)GlcNAc(b1-4)[Fuc(a1-6)]GlcNAc
Summary of the method: as §1

[33] = biological target: Gal(b1-4)GlcNAc(b1-3)Gal(b1-4)GlcNAc(b1-3)Gal(b1-4)GlcNAc
Summary of the method: as §1

[34] = biological target: Gal(b1-4)GlcNAc(b1-3)Gal(b1-4)GlcNAc(b1-3)Gal(b1-4)GlcNAc(b1-2)Man(a1-3)[Gal(b1-4)GlcNAc(b1-3)Gal(b1-4)GlcNAc(b1-3)Gal(b1-4)GlcNAc(b1-2)Man(a1-6)]Man(b1-4)GlcNAc(b1-4)GlcNAc
Summary of the method: as §1

[35] = biological target: Gal(b1-4)GlcNAc(b1-3)Gal(b1-4)GlcNAc(b1-3)Gal(b1-4)GlcNAc(b1-2)Man(a1-3)[Gal(b1-4)GlcNAc(b1-3)Gal(b1-4)GlcNAc(b1-3)Gal(b1-4)GlcNAc(b1-2)Man(a1-6)]Man(b1-4)GlcNAc(b1-4)[Fuc(a1-6)]GlcNAc
Summary of the method: as §1

[36] = biological target: Gal(b1-4)GlcNAc(b1-3)Gal(b1-4)GlcNAc(b1-3)Gal(b1-4)GlcNAc(b1-2)[Gal(b1-4)GlcNAc(b1-3)Gal(b1-4)GlcNAc(b1-3)Gal(b1-4)GlcNAc(b1-6)]Man(a1-6)[Gal(b1-4)GlcNAc(b1-3)Gal(b1-4)GlcNAc(b1-3)Gal(b1-4)GlcNAc(b1-2)Man(a1-3)]Man(b1-4)GlcNAc(b1-4)[Fuc(a1-6)]GlcNAc
Summary of the method: as §1

[37] = biological target: Gal(b1-4)GlcNAc(b1-3)Gal(b1-4)GlcNAc(b1-3)Gal(b1-4)GlcNAc(b1-3)Gal(b1-4)GlcNAc(b1-2)Man(a1-3)[Gal(b1-4)GlcNAc(b1-3)Gal(b1-4)GlcNAc(b1-3)Gal(b1-4)GlcNAc(b1-3)Gal(b1-4)GlcNAc(b1-2)Man(a1-6)]Man(b1-4)GlcNAc(b1-4)GlcNAc
Summary of the method: as §1

B1: B1257 (Bifidobacterium sp) (protein)
chain: MKKSIRLVAAIAALAMTAGISACGSSTNGNQAKSDVTAQDVETALTDTSKNVELTVWAYSAKQMEPTVKAFEKKYPHIKINFVNTGAAGDHFTKFQNVVQAQKDIPDVVQMGANKFQQFAVSGALLNFANDSIEKAWSKLYTKTAWAQVHYAGGLYGAPQDATPLANYVRKDILDEHNLQVPESWEDIYNEGIKLHKEDSNKYMGILGSDISFFTNLYRSVGARLWKVNSVDDVELTMNSGKAKEFTEFLQKCLKDGVLEGGTVFTDEFNRSINDGRYATFINENWMGNTYKEQNPSLKGKMVVAAPPSWKGQPYQSSSVGSMMSVSAACPKEKQAAALAFINWLDSDKDAIQSWQDTNNGNFFMAASVYQDDENQRNKKETDGYYANDDVNAVYFDSMDKVNTDWEYLPFMSQVEVVFNDVIVPQMNENGDLVGAMAKAQQELKTYAKDNGFKVTTDAD
B1 was tested, and the “glycan array binding signal (z-score)” value [1] was -0.053, the “glycan array binding signal (z-score)” value [2] was 0.11 and the “glycan array binding signal (z-score)” value [3] was -0.115. For the same binder, the “glycan array binding signal (z-score)” value [4] was -0.093, the “glycan array binding signal (z-score)” value [5] was -0.056 and the “glycan array binding signal (z-score)” value [6] was -0.12. For the same binder, the “glycan array binding signal (z-score)” value [7] was -0.064, the “glycan array binding signal (z-score)” value [8] was 0.059 and the “glycan array binding signal (z-score)” value [9] was -0.139. For the same binder, the “glycan array binding signal (z-score)” value [10] was -0.166, the “glycan array binding signal (z-score)” value [11] was -0.187 and the “glycan array binding signal (z-score)” value [12] was -0.171. The “glycan array binding signal (z-score)” value [13] was -0.051, the “glycan array binding signal (z-score)” value [14] was -0.085 and the “glycan array binding signal (z-score)” value [15] was -0.035. For the same binder, the “glycan array binding signal (z-score)” value [16] was 0.042, the “glycan array binding signal (z-score)” value [17] was -0.081 and the “glycan array binding signal (z-score)” value [18] was -0.103. The “glycan array binding signal (z-score)” value [19] was -0.094, the “glycan array binding signal (z-score)” value [20] was -0.071 and the “glycan array binding signal (z-score)” value [21] was -0.006. For the same binder, the “glycan array binding signal (z-score)” value [22] was -0.054, the “glycan array binding signal (z-score)” value [23] was -0.095 and the “glycan array binding signal (z-score)” value [24] was -0.084. For the same binder, the “glycan array binding signal (z-score)” value [25] was -0.103, the “glycan array binding signal (z-score)” value [26] was -0.162 and the “glycan array binding signal (z-score)” value [27] was 0.301. The “glycan array binding signal (z-score)” value [28] was -0.162, the “glycan array binding signal (z-score)” value [29] was 0.212 and the “glycan array binding signal (z-score)” value [30] was 0.122. For the same binder, the “glycan array binding signal (z-score)” value [31] was 0.24, the “glycan array binding signal (z-score)” value [32] was 0.04 and the “glycan array binding signal (z-score)” value [33] was -0.169. For the same binder, the “glycan array binding signal (z-score)” value [34] was 0.108, the “glycan array binding signal (z-score)” value [35] was -0.027 and the “glycan array binding signal (z-score)” value [36] was 0.044. For the same binder, the “glycan array binding signal (z-score)” value [37] was 0.03.
